± gives the standard deviation of the averaged measurements. Growth of baker's yeast expressing single-residue variants of Pneumocystis jirovecii dihydrofolate reductase in 8.8 or 44 µM methotrexate (about 75% and 90% inhibition of the wild type). Selection coefficient per generation; 0 = like wild type, above 0 = less sensitive, below 0 = more sensitive or loss of function. No active / inactive call per row; the paper calls resistant above 0.220 (8.8 µM) or 0.243 (44 µM) together with a significance test. At 44 µM about 15% of codons end with one read or none, so the lowest values are floors (replicate rank correlation 0.74; 0.94 at 8.8 µM).
B1: UniProt A0EPZ9; numbered along this chain (parent)
chain: MDWQKSLTLIVALTLSRGIGLKNDLPWKLKSDMMFFSRVTSGLLVTRSTGQMNVVLMGRKTWESLPAHSRPLKNRINVVISRQEVLDLGGGAYHARSLDDALALLSQIYDSTSKIQLNRVFVIGGGELCKAAMEHSRLNRIIATVIHNEVDCDVFFPIDFRSSQSCLPWRKQDHSVLEAWVGSKVPQGKINENGFIYEFEMWIRDI

Variants of: B1
Assay: selection coefficient against synonymous wild-type codons (log2 per generation); higher = faster growth than wild type
Settings: with Saccharomyces cerevisiae carrying the variant on a plasmid
Method: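 Pooled growth of yeast carrying single-residue variants of P. jirovecii dihydrofolate reductase (own DFR1 gene intact), two passages at 30 °C, three cultures, sequenced before and after. Codons with under 15 starting reads are left out; codons of one change are averaged.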

Variant	selection coefficient against synonymous wild-type codons (log2) (methotrexate 8.8 µM)	selection coefficient against synonymous wild-type codons (log2) (methotrexate 44 µM)
R170Q	0.0127 ± 0.013	-0.0509 ± 0.049
R170S	0.00931 ± 0.077	-0.0277 ± 0.11
R170T	0.00612 ± 0.04	-0.0607 ± 0.096
R170V	-0.0038 ± 0.029	-0.106 ± 0.079
R170W	-0.262 ± 0.086	-0.309 ± 0.12
R170Y	-0.0732 ± 0.044	-0.0659 ± 0.039
K171A	-0.103 ± 0.064	-0.119 ± 0.094
K171C	-0.213 ± 0.03	-0.235 ± 0.18
K171D	-0.164 ± 0.049	-0.296 ± 0.15
K171E	-0.0527 ± 0.032	-0.135 ± 0.051
K171F	-0.276 ± 0.069	-0.315 ± 0.086
K171G	-0.169 ± 0.064	-0.32 ± 0.069
K171H	-0.0901 ± 0.054	-0.0714 ± 0.11
K171I	-0.181 ± 0.047	-0.16 ± 0.029
K171L	-0.175 ± 0.086	-0.151 ± 0.11
K171M	-0.194 ± 0.085	-0.153 ± 0.093
K171N	-0.122 ± 0.062	-0.149 ± 0.072
K171P	-0.117 ± 0.067	-0.066 ± 0.1
K171Q	-0.0484 ± 0.051	-0.23 ± 0.2
K171R	-0.108 ± 0.046	-0.0697 ± 0.098
K171S	-0.106 ± 0.063	-0.155 ± 0.21
K171T	-0.101 ± 0.066	-0.144 ± 0.09
K171V	-0.129 ± 0.07	-0.179 ± 0.14
K171Y	-0.261 ± 0.061	-0.212 ± 0.046

Variant	selection coefficient against synonymous wild-type codons (log2) (methotrexate 8.8 µM)	selection coefficient against synonymous wild-type codons (log2) (methotrexate 44 µM)
Q172A	0.0534 ± 0.022	-0.0166 ± 0.14
Q172C	-0.109 ± 0.019	-0.24 ± 0.13
Q172D	-0.0269 ± 0.028	-0.209 ± 0.013
Q172E	0.00601 ± 0.044	0.0365 ± 0.032
Q172F	-0.256 ± 0.28	-0.0758 ± 0.12
Q172G	-0.0801 ± 0.039	0.00771 ± 0.11
Q172H	-0.0624 ± 0.077	-0.167 ± 0.14
Q172I	-0.101 ± 0.051	-0.219 ± 0.14
Q172K	-0.0828 ± 0.043	-0.118 ± 0.15
Q172L	-0.145 ± 0.047	-0.171 ± 0.088
Q172M	-0.0504 ± 0.03	-0.149 ± 0.09
Q172N	-0.161 ± 0.089	-0.186 ± 0.095
Q172P	-0.109 ± 0.11	-0.165 ± 0.088
Q172R	-0.248 ± 0.077	-0.274 ± 0.12
Q172S	-0.0672 ± 0.049	-0.179 ± 0.13
Q172T	-0.0603 ± 0.07	-0.0738 ± 0.15
Q172V	-0.0849 ± 0.03	-0.174 ± 0.17
Q172W	-0.3 ± 0.1	-0.183 ± 0.17
Q172Y	-0.171 ± 0.087	-0.183 ± 0.14
D173A	-0.169 ± 0.059	-0.184 ± 0.14
D173C	-0.252 ± 0.12	-0.258 ± 0.11
D173E	-0.0274 ± 0.025	0.122 ± 0.27
D173F	-0.326 ± 0.048	-0.396 ± 0.087
D173G	-0.163 ± 0.057	-0.258 ± 0.14

Variant	selection coefficient against synonymous wild-type codons (log2) (methotrexate 8.8 µM)	selection coefficient against synonymous wild-type codons (log2) (methotrexate 44 µM)
D173H	-0.171 ± 0.035	-0.151 ± 0.088
D173I	-0.233 ± 0.041	-0.242 ± 0.12
D173K	-0.171 ± 0.063	-0.208 ± 0.15
D173L	-0.202 ± 0.045	-0.2 ± 0.12
D173M	-0.186 ± 0.044	-0.231 ± 0.15
D173N	-0.155 ± 0.079	-0.152 ± 0.15
D173P	-0.0726 ± 0.039	-0.0616 ± 0.28
D173Q	-0.156 ± 0.044	-0.179 ± 0.18
D173R	-0.302 ± 0.11	-0.321 ± 0.1
D173S	-0.19 ± 0.081	-0.156 ± 0.11
D173T	-0.189 ± 0.071	-0.216 ± 0.18
D173V	-0.215 ± 0.058	-0.17 ± 0.12
D173W	-0.391 ± 0.084	-0.359 ± 0.15
D173Y	-0.167 ± 0.1	-0.0774 ± 0.096
H174A	-0.0737 ± 0.07	-0.126 ± 0.22
H174C	-0.156 ± 0.083	-0.124 ± 0.036
H174D	-0.0666 ± 0.058	-0.17 ± 0.042
H174E	-0.0521 ± 0.058	-0.288 ± 0.12
H174F	-0.278 ± 0.051	-0.361 ± 0.038
H174G	-0.0556 ± 0.031	-0.202 ± 0.18
H174I	-0.237 ± 0.15	0.111 ± 0.49
H174K	0.0753 ± 0.043	0.0623 ± 0.078
H174L	-0.135 ± 0.081	-0.24 ± 0.18
H174M	-0.164 ± 0.11	-0.312 ± 0.2

Variant	selection coefficient against synonymous wild-type codons (log2) (methotrexate 8.8 µM)	selection coefficient against synonymous wild-type codons (log2) (methotrexate 44 µM)
H174N	-0.105 ± 0.16	-0.0648 ± 0.046
H174P	-0.0422 ± 0.047	-0.098 ± 0.087
H174Q	-0.0469 ± 0.093	-0.112 ± 0.026
H174R	-0.0376 ± 0.045	-0.0616 ± 0.11
H174S	-0.0264 ± 0.06	-0.115 ± 0.11
H174T	-0.0664 ± 0.099	-0.269 ± 0.11
H174V	-0.228 ± 0.081	-0.292 ± 0.12
H174W	-0.147 ± 0.037	-0.348 ± 0.054
H174Y	-0.2 ± 0.083	-0.253 ± 0.04
S175A	-0.00845 ± 0.052	-0.0191 ± 0.071
S175C	-0.153 ± 0.027	-0.209 ± 0.12
S175E	0.0644 ± 0.059	0.0235 ± 0.028
S175F	-0.326 ± 0.064	-0.315 ± 0.13
S175G	-0.00858 ± 0.02	-0.0972 ± 0.16
S175H	-0.0426 ± 0.017	-0.0633 ± 0.038
S175I	-0.355 ± 0.059	-0.247 ± 0.094
S175K	0.0092 ± 0.043	-0.0762 ± 0.097
S175L	-0.221 ± 0.07	-0.205 ± 0.1
S175M	-0.148 ± 0.083	-0.257 ± 0.11
S175N	0.0197 ± 0.022	-0.0536 ± 0.078
S175P	-0.0568 ± 0.063	-0.108 ± 0.11
S175Q	-0.0112 ± 0.031	-0.0203 ± 0.054
S175R	-0.076 ± 0.052	-0.115 ± 0.066
S175T	-0.0706 ± 0.021	-0.15 ± 0.067

Variant	selection coefficient against synonymous wild-type codons (log2) (methotrexate 8.8 µM)	selection coefficient against synonymous wild-type codons (log2) (methotrexate 44 µM)
S175V	-0.246 ± 0.086	-0.29 ± 0.14
S175W	-0.382 ± 0.081	-0.23 ± 0.029
S175Y	-0.311 ± 0.052	-0.231 ± 0.14
V176A	0.0852 ± 0.022	-0.0327 ± 0.14
V176C	0.00272 ± 0.019	-0.107 ± 0.077
V176D	0.117 ± 0.029	0.107 ± 0.055
V176E	0.144 ± 0.039	0.106 ± 0.033
V176F	-0.122 ± 0.018	-0.215 ± 0.049
V176G	0.0117 ± 0.058	-0.0566 ± 0.042
V176H	0.0122 ± 0.049	-0.0908 ± 0.05
V176I	-0.0127 ± 0.063	-0.00837 ± 0.3
V176K	0.0555 ± 0.025	0.0406 ± 0.074
V176L	-0.0614 ± 0.051	-0.109 ± 0.16
V176M	-0.0616 ± 0.0044	-0.043 ± 0.049
V176N	0.0307 ± 0.011	-0.0114 ± 0.082
V176P	-0.136 ± 0.032	-0.264 ± 0.14
V176Q	0.119 ± 0.036	0.122 ± 0.015
V176R	-0.0307 ± 0.051	-0.195 ± 0.16
V176S	0.0531 ± 0.043	-0.0216 ± 0.068
V176T	0.0345 ± 0.037	-0.023 ± 0.064

Reference: the supplement of paper PMC11125491
